According to the RNAGym collection of RNA variant scans (doi:10.7554/elife.90254):
The source gives no read counts; variants with many changes may rest on few reads.

B1: OR4K15 (parent)
chain: GUUAACGGUCAUAGGCCAUGGAAACUAGGAGCACCAUUUCGCUGCCAGUGAAGAAAUGAACAAAGAAAAUCUGGGCCAGGCAGGCAUCAAAAGAAAUAGUCUUGCGCUCAACCAGAAAGUCUGUAAUCAUUUUAAGGGUA

Variants of: B1
Assay: self-cleavage, relative activity (ratio to wild type); higher = more cleavage; in vitro, sequencing; the parent is a self-cleaving ribozyme
For A11G A13U A24C A55G A56U A89U A126G, the self-cleavage was 0.47.
In the case of A11G A18C A66U, the self-cleavage is reported as 0.84.
A11G A18G A22C A23U A90G U102C gave a self-cleavage of 1.18.
With A11G A18G A23U the self-cleavage was 0.18.
In the case of A11G A18G U57C A116G, the self-cleavage is reported as 0.55.
Work on A11G A18U A33G G53U G136A yielded a self-cleavage of 0.42.
A11G A18U G21A A47U gave a self-cleavage of 0.93.
With A11G A22G U37C U124A the self-cleavage was 0.4.
With A11G A22G U49C A78U U97C U103A A117G the self-cleavage was 0.05.
With A11G A22U U43A A67G the self-cleavage was 0.84.
With A11G A23G A52G A63G A67G A110G the self-cleavage was 0.12.
A11G A23G A86C A96G A110G showed a self-cleavage of 0.07.
For A11G A23G A95G U103C U139C, the self-cleavage was 0.73.
For A11G A23G A96G, the self-cleavage was 0.44.
Variant A11G A23G U26C A47G A67G U87C has a self-cleavage of 0.2.
For A11G A23G U57C A96G, the self-cleavage was 0.23.
A11G A23G U122C A134G showed a self-cleavage of 0.96.
Work on A11G A23U U37C U49A A118G yielded a self-cleavage of 0.99.
With A11G A23U U120C the self-cleavage was 0.5.
For A11G A24C C42U A62G A89G A118G U120A A125G, the self-cleavage was 0.65.
Work on A11G A24C U43A U57C A91U A92G U120C yielded a self-cleavage of 0.3.
For A11G A24G A27G U39A A134G, the self-cleavage was 0.94.
Variant A11G A24G A67G A90G A116G has a self-cleavage of 0.11.
Work on A11G A24G U26C A60G G80A U87C yielded a self-cleavage of 0.17.
Variant A11G A24G U26C C42U A66G A96U U108C has a self-cleavage of 0.01.
Work on A11G A24G U130C yielded a self-cleavage of 0.29.
In the case of A11G A27C A36G A59G, the self-cleavage is reported as 0.94.
With A11G A27G U57A A89G U100C the self-cleavage was 1.33.
In the case of A11G A27G U108C, the self-cleavage is reported as 0.04.
With A11G A27U A30G A47G A54U U122C the self-cleavage was 0.82.
With A11G A27U A54G A56U the self-cleavage was 0.13.
With A11G A27U U100C the self-cleavage was 1.95.
With A11G A27U U102C the self-cleavage was 1.13.
For A11G A30G U43C, the self-cleavage was 0.69.
A11G A33G G58U A90U U132G gave a self-cleavage of 0.
Variant A11G A33U A116G U122A U130A has a self-cleavage of 0.02.
In the case of A11G A36G U122C, the self-cleavage is reported as 0.77.
In the case of A11G A47G A54U A64U G106A, the self-cleavage is reported as 0.
A11G A47G A56G gave a self-cleavage of 0.79.
With A11G A47G A59G A78G U87A C109A the self-cleavage was 0.07.
A11G A47G A94G gave a self-cleavage of 1.78.
Variant A11G A47G U70C G73U has a self-cleavage of 0.26.
Variant A11G A47U C101A has a self-cleavage of 0.05.
Variant A11G A51G A78G has a self-cleavage of 0.49.
For A11G A51G A91G, the self-cleavage was 0.3.
In the case of A11G A51G U120C, the self-cleavage is reported as 0.65.
A11G A52G A55G G83A G115U gave a self-cleavage of 0.13.
A11G A52G A64G U100C showed a self-cleavage of 0.75.
Variant A11G A52G A94G C105U has a self-cleavage of 0.04.
Work on A11G A52G G74U A86U A118G yielded a self-cleavage of 0.09.
For A11G A54G A56G A86U A140U, the self-cleavage was 0.98.
Work on A11G A54G A56G U120C yielded a self-cleavage of 1.24.
A11G A54G A134G showed a self-cleavage of 0.57.
A11G A55G A67G A69G gave a self-cleavage of 1.25.
Work on A11G A55G A78G yielded a self-cleavage of 0.23.
With A11G A55G A95U U130C the self-cleavage was 0.71.
A11G A55G U57A A69G U102G C105U gave a self-cleavage of 0.12.
A11G A55G U130C gave a self-cleavage of 0.33.
For A11G A56C U127A, the self-cleavage was 0.79.
With A11G A56G A62G A140G the self-cleavage was 1.13.
A11G A56G A63G gave a self-cleavage of 0.48.
Work on A11G A56G G123A yielded a self-cleavage of 1.43.
Variant A11G A56G U87C C128A has a self-cleavage of 0.8.
Variant A11G A56U A60G A111G has a self-cleavage of 0.02.
Variant A11G A59G A63G A90G has a self-cleavage of 1.37.
With A11G A59G A86G the self-cleavage was 0.59.
A11G A59G A92G U131C gave a self-cleavage of 0.56.
With A11G A59G A129C A135U the self-cleavage was 0.1.
In the case of A11G A59G A129G, the self-cleavage is reported as 0.75.
A11G A59G U131C gave a self-cleavage of 0.52.
A11G A59U A125G gave a self-cleavage of 0.58.
In the case of A11G A59U U70A C85U, the self-cleavage is reported as 0.52.
A11G A60G A82G A110G gave a self-cleavage of 0.03.
Work on A11G A60G A94G yielded a self-cleavage of 0.94.
Variant A11G A60U A66G A78G U100C has a self-cleavage of 0.22.
With A11G A62U U87C C121U the self-cleavage was 1.32.
In the case of A11G A63G A90G, the self-cleavage is reported as 0.94.
Variant A11G A64G A66G G84A U120G has a self-cleavage of 1.79.
In the case of A11G A64G G106A, the self-cleavage is reported as 0.08.
Work on A11G A64G U108A A111U U131C yielded a self-cleavage of 0.02.
In the case of A11G A64U A117G A125U, the self-cleavage is reported as 1.22.
A11G A66G A90G A95G A110G showed a self-cleavage of 0.04.
A11G A66G A117U showed a self-cleavage of 1.33.
With A11G A66U U87C U132A the self-cleavage was 0.34.
